This assay deals with T1, human chimeric receptor FGFR4-Fc (R&D Systems) (human, UniProt P22455 22-369).
T1 construct: extracellular domain; bought; also called hFGFR4-Fc; not shown: human IgG Fc
T1 sequence (looked up): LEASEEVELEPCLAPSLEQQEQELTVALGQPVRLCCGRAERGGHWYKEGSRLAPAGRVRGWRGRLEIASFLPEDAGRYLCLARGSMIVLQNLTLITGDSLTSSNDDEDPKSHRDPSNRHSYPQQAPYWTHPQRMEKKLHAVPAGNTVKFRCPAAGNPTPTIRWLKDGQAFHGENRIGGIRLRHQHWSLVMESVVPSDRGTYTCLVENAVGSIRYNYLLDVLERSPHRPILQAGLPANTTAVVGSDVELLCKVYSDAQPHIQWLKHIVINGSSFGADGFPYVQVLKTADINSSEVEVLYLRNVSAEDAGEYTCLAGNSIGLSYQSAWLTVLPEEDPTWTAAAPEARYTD
The experiment in a line: solid phase binding assay, FGF19 with heparin on FGFR4-Fc.

Results on one molecule are retold here after patent US20210230280A1 (EXIRIS S R L, published 2021).

B1: recombinant FGF19 (Peprotech) (ligand)
chain: not shown
notes: added with equimolar low molecular weight heparin
The Kd is the concentration at which binding is half-saturated. A high value points to weaker binding. As for B1, the Kd is 23 nM.
